Assay [1] concerns the target Flag-tagged UBE2E2 (wild type) (human) (UniProt Q96LR5). Kind of assay: co-IP; Flag-tagged protein IP kit with magnetic beads; A2780 cells transfected with Flag-tagged UBE2E2 or Flag-tagged p62 vectors; immunoblot of the precipitate (Fig. 4E, F).
Assay [2] concerns the target Flag-tagged UBE2E2 C139A mutant (human) (UniProt Q96LR5). The assay is described as follows: co-IP; Flag-tagged protein IP kit with magnetic beads; SKOV3 and A2780 cells transfected with Flag-tagged WT or mutant UBE2E2; immunoblot for Nrf2 (Fig. 5H, 6E).
For assay [3], the target named is Flag-tagged UBE2E2 (wild type) (human) (UniProt Q96LR5). The assay is described as above.
Assay [4] deals with Flag-tagged N-terminal of UBE2E2 (C-terminal-truncated mutant Δ53-201, residues 1-52) (human) (UniProt Q96LR5). The assay is described as above.

Protein sequences, listed by entry. Tags and fused reporters are not part of them. Lines headed by an entry give the natural chain unless they say otherwise; changes in a name come on top. Chains listed by the source or under a name are the forms on record and can include a tag or linker. Residues count along the entry.
UniProt Q96LR5: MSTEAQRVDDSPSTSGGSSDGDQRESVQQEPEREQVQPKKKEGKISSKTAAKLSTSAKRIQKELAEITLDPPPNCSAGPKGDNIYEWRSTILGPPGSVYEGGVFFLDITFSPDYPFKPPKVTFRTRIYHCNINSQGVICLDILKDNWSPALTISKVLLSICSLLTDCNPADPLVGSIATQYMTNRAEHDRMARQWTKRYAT
Flag-tagged N-terminal of UBE2E2 (C-terminal-truncated mutant Δ53-201, residues 1-52): residues 1-52 of Q96LR5
UniProt O95863: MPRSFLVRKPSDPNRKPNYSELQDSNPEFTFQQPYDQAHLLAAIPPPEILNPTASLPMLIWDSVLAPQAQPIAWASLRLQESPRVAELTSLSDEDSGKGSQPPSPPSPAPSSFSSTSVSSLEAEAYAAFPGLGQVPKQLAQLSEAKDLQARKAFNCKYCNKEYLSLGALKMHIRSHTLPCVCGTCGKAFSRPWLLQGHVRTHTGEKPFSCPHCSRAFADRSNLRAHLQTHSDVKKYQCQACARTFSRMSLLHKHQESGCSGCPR

No constants are given. Whether binding was seen depends on the method and setting. In cells and extracts the contact can be indirect. Some results given as binding are weak or reduced against the parent protein; the word gives no strength.

In the case of “p62 (sequestosome 1) (from UniProt Q13501 1-440)”, the binding result in assay [1] is “no binding”. For the molecule “Snail (zinc finger protein SNAI1) (from UniProt O95863 1-264)”, the binding entry in assay [1] was “no binding”.

B1: Nrf2 (nuclear factor-erythroid-2 related factor-2) (protein, UniProt Q16236 1-605)
chain: MMDLELPPPGLPSQQDMDLIDILWRQDIDLGVSREVFDFSQRRKEYELEKQKKLEKERQEQLQKEQEKAFFAQLQLDEETGEFLPIQPAQHIQSETSGSANYSQVAHIPKSDALYFDDCMQLLAQTFPFVDDNEVSSATFQSLVPDIPGHIESPVFIATNQAQSPETSVAQVAPVDLDGMQQDIEQVWEELLSIPELQCLNIENDKLVETTMVPSPEAKLTEVDNYHFYSSIPSMEKEVGNCSPHFLNAFEDSFSSILSTEDPNQLTVNSLNSDATVNTDFGDEFYSAFIAEPSISNSMPSPATLSHSLSELLNGPIDVSDLSLCKAFNQNHPESTAEFNDSDSGISLNTSPSVASPEHSVESSSYGDTLLGLSDSEVEELDSAPGSVKQNGPKTPVHSSGDMVQPLSPSQGQSTHVHDAQCENTPEKELPVSPGHRKTPFTKDKHSSRLEAHLTRDELRAKALHIPFPVEKIINLPVVDFNEMMSKEQFNEAQLALIRDIRRRGKNKVAAQNCRKRKLENIVELEQDLDHLKDEKEKLLKEKGENDKSLHLLKKQLSTLYLEVFSMLRDEDGKPYSPSEYSLQQTRDGNVFLVPKSKKPDVKKN
On to B1, for which the binding entry in assay [2], in assay [3] and in assay [4] was “binds” throughout.

The values above are taken from paper PMC9918489.
